# Measured values published in the supplement of paper PMC11417369.
# This is one part of the list.
# Tested on: PfSIP2 AP2 domain 1 (GST-tagged)
# Experiment: gcPBM binding intensity (ln(normalized median fluorescence intensity)); higher = stronger DNA binding
# How it was run: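 In this array assay, P. falciparum DNA-binding domains with a GST tag, expressed in E. coli, were applied for 1 h to primer-extended double-stranded 36-bp intergenic genomic probes and negative controls on an Agilent 4 × 180k array. Bound protein was visualised with Alexa488 anti-GST antibody at 488 nm. Binding intensity is the highest Masliner-normalised natural-log median intensity across replicate spots of either probe orientation.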
row,Sequence,gcPBM binding intensity (ln)
1,TATATATTAAAAATAGTGCAAAATAATATATATATA [GTGCAC_site9716],8.84
2,AAGGGGAGAAAAATAAACGAAATATATACATACATA [XGTACX_negctrl_site88],7.08
3,ATATATATATATATATGTACATATTCATCTTATTCT [XGTACX_site1537],9.35
4,ACAAATAAATATATATGTACATATATTTTTTTATTT [XGTACX_site2989],7.14
5,TTTTATTTATATTATACACACAAGGAAAAAAAAAAA [CACACA_site7690],7.02
6,GATATGATTACCTTATGGTGTTTTTGATGGATAGTT [CACACA_negctrl_site1504],6.83
7,TTTTATTATTTATATACACACTTGCTGAAATGTTAT [CACACA_site5919],7.15
8,TATAATAATAATGATAGTACGTATGAGTTCAAAAAA [XGTACX_site608],6.96
9,TATATACAAATATGCTGTACAAAAAAAAAAAAAAAA [XGTACX_site4732],6.94
10,CGGTATTTTTTAATTTGTACGCATATACAATAATTA [XGTACX_site8603],7.5
11,TATTTATATTTATATACACACTATATAACTCAAACA [CACACA_site6611],7.05
12,AATTGTTCGATATATGCACACAGTTTTGTTATTTTT [CACACA_site1615],7.41
13,CTAGCAAATACATACACACACACACGGATACCTATA [CACACA_site7609],7.11
14,TATATAACTTTATTTTTCTTTACTTATTTTATTTTA [GTGCAC_negctrl_site66],6.96
15,TTTTTTAAAATATATATAATGAATTTTTTTTTTTTT [CACACA_negctrl_site1577],7.05
16,AAAGAAAAAAAAAAAAGTACATAAATATAAAAAGAA [XGTACX_site6753],7.25
17,ATATATATATATATATGTACATATTATTAATAATAT [XGTACX_site6667],9.4
18,GTATAATATGAACACACACACACACCCAAAAAAAAA [CACACA_site5152],7.35
19,TTATGGAACCCCATTCGTACATAAATATTTTATATA [XGTACX_site7112],6.73

row,Sequence,gcPBM binding intensity (ln)
1,ATACATATTAACAAGGTGCAAATGGATTTCATAAAA [GTGCAC_site9775],10.7
2,TTTTTTTTTTTGTGAGTGCACGTATGAAGAGAAAAA,10.8
3,TGAAACCATAAAGAATGTACACAGCGGTATAAGTTA [XGTACX_site674],6.87
4,TTAATATATTTAAATATATATAAAATATATAATATG [CACACA_negctrl_site880],6.89
5,AATAAAATAAGAAGCACACAAATATTATATATAAAA [CACACA_site3980],6.78
6,TTTTAAATAATACATACATGCATATATACACATATA [TGCATGCA_site8],6.99
7,TTTTGGAATTTTAGCTGTACTTTTCCTATTTTGTAT [XGTACX_site7679],6.81
8,TTCTTTTCTTCTACATGTACAAATATTATATATATA [XGTACX_site2996],8.04
9,TATATAACTGTCTTCACACACACATATAAATAAATA [CACACA_site7317],7.28
10,TATTTCACAACTTGTCGTACATTAATTGTATTATTT [XGTACX_site997],7.08
11,ATTATTATTAATAGTACACACTATGGCATTTCAATA [CACACA_site5388],7.02
12,TTAGGTGTATATAATTGTACATTTTGGAAATTATAC [XGTACX_site5492],7.08
13,ATCTTTCATCTACCAAGTACAAATTACTTTTTTTTT [XGTACX_site7001],7.08
14,TCTTATTTAAAAATAGCACACATTATGTATATATAT [CACACA_site2822],7.51
15,AGCTCGGAAAAATTAGCATGCAAAAAAAAAAAAAAA [TGCATGCA_site658],6.99
16,TATTTTAATTATAAATTTAAAAAAAAAAAGAAAAAA [CACACA_negctrl_site1674],6.93
17,TGCTTATATATACGTGCACACATATATATAAGATAT [CACACA_site8516],9.74
18,CTGGAGGATGAAAAAAGTACAAAAGGAGGAAATGTA [XGTACX_site8846],6.96
19,AGCTCATGCAGGTGTACACAAAAAGAAAAAAAATAA [CACACA_site4828],7.46

row,Sequence,gcPBM binding intensity (ln)
1,AAAACAAATATATTAACACACAAACATATAAACAAA [CACACA_site6052],7.03
2,ATAAATAATGTTGACACACACAATAATCTTATTATG [CACACA_site3593],7.01
3,ATGTCCTCAATGTTTACACACTCTTTTATATAAGTT [CACACA_site1460],7.34
4,CCCCATATAATGAACACACACACTCCTCATAATTAA [CACACA_site628],7.15
5,TATTAATTTATATCAACACACAAAATCAATATACTT [CACACA_site1757],6.95
6,TTCTATATTTTAGCTGATAATATTATGAGCTTCACT [XGTACX_negctrl_site427],6.81
7,AACATAAATATATATAGTACATATATATATATTCAA [XGTACX_site7287],7.06
8,AAGGAATAATATAAAACACACACATAAATATAAATA [CACACA_site9115],6.91
9,ATATAGATCAGACACACACACATGTTTTAAAACTAT [CACACA_site6186],7.16
10,CGAAATATTATGTACGCACACACATTTTTAATATAT [CACACA_site3852],7.34
11,AATATATGGTATAATTGTACAAAAAAAAAAAAAAAA [XGTACX_site1476],7.08
12,TCTTTAATGAACAAATGTACAAGAACAATACCCGCA [XGTACX_site2047],7.1
13,CTTTAACCTTTTTATTGTACTTTTAATATTTTAAAA [XGTACX_site4457],7.39
14,GTGAAATGGAAAAAAAGTACAGATTACATAAGTATT [XGTACX_site6355],7.39
15,AGTTTAGAATTTAATACACACAAAAAAAAAAAATTA [CACACA_site7698],6.99
16,AACGTTCAATTTAAATGTACAAATGTATTTAAATAT [XGTACX_site315],6.87
17,AAATACAAAATTGTTACACACATATTAAGTATGACA [CACACA_site4421],6.87
18,TTTCTTTTTTCATTTACACACAATAATATAAGAATA [CACACA_site3164],7.28
19,TACACAAATATATATATATATATATATATATATATA [XGTACX_negctrl_site305],9.89
